Several values for one entry are separate records, joined by “and”; a condition that tells them apart may be missing. Identical values can stand only once. This continues a long series; more values of the same kind are listed elsewhere.
Assay: xn = mol fraction of the nth substance listed

CN(C)C=O + O
Details	viscosity
293.15 K, 100 kPa, x2 = 0.1	0.959 mPa·s
293.15 K, 100 kPa, x2 = 0.2	1.122 mPa·s
293.15 K, 100 kPa, x2 = 0.3	1.347 mPa·s
293.15 K, 100 kPa, x2 = 0.4	1.665 mPa·s
293.15 K, 100 kPa, x2 = 0.5	2.081 mPa·s
293.15 K, 100 kPa, x2 = 0.6	2.549 mPa·s
293.15 K, 100 kPa, x2 = 0.7	2.867 mPa·s
293.15 K, 100 kPa, x2 = 0.8	2.746 mPa·s
293.15 K, 100 kPa, x2 = 0.9	2.009 mPa·s
293.15 K, 100 kPa, x2 = 0.92	1.808 mPa·s
293.15 K, 100 kPa, x2 = 0.94	1.612 mPa·s
293.15 K, 100 kPa, x2 = 0.96	1.399 mPa·s
293.15 K, 100 kPa, x2 = 0.98	1.197 mPa·s
293.15 K, 101 kPa, x2 = 0.6	2.73 mPa·s
293.15 K, 101 kPa, x2 = 0.8	2.69 mPa·s
298 K, 101 kPa, x1 = 0.02362	1.099 mPa·s
298 K, 101 kPa, x1 = 0.027	1.024 mPa·s
298 K, 101 kPa, x1 = 0.058	1.479 mPa·s
298 K, 101 kPa, x1 = 0.096	1.688 mPa·s
298 K, 101 kPa, x1 = 0.14	2.147 mPa·s
298.15 K, 100 kPa, x2 = 0.1	0.8957 mPa·s
298.15 K, 100 kPa, x2 = 0.2	1.033 mPa·s
298.15 K, 100 kPa, x2 = 0.3	1.228 mPa·s
298.15 K, 100 kPa, x2 = 0.4	1.499 mPa·s
298.15 K, 100 kPa, x2 = 0.5	1.841 mPa·s
298.15 K, 100 kPa, x2 = 0.6	2.218 mPa·s
298.15 K, 100 kPa, x2 = 0.7	2.462 mPa·s
298.15 K, 100 kPa, x2 = 0.8	2.337 mPa·s
298.15 K, 100 kPa, x2 = 0.9	1.739 mPa·s
298.15 K, 100 kPa, x2 = 0.92	1.572 mPa·s
298.15 K, 100 kPa, x2 = 0.94	1.404 mPa·s
298.15 K, 100 kPa, x2 = 0.96	1.23 mPa·s
298.15 K, 100 kPa, x2 = 0.98	1.06 mPa·s
298.15 K, 101 kPa, x1 = 0.02	1.091 mPa·s
298.15 K, 101 kPa, x1 = 0.03	1.109 mPa·s
298.15 K, 101 kPa, x1 = 0.05	1.326 mPa·s
298.15 K, 101 kPa, x1 = 0.0503	1.361 mPa·s
298.15 K, 101 kPa, x1 = 0.06	1.37 mPa·s
298.15 K, 101 kPa, x1 = 0.1006	1.79 mPa·s
298.15 K, 101 kPa, x1 = 0.1202	1.94 mPa·s
298.15 K, 101 kPa, x1 = 0.1498	2.138 mPa·s
298.15 K, 101 kPa, x1 = 0.15	2.127 mPa·s
298.15 K, 101 kPa, x1 = 0.1698	2.259 mPa·s
298.15 K, 101 kPa, x1 = 0.2	2.36 mPa·s
298.15 K, 101 kPa, x1 = 0.2002	2.395 mPa·s
298.15 K, 101 kPa, x1 = 0.22	2.459 mPa·s
298.15 K, 101 kPa, x1 = 0.25	2.485 mPa·s
298.15 K, 101 kPa, x1 = 0.2504	2.52 mPa·s
298.15 K, 101 kPa, x1 = 0.2702	2.536 mPa·s
298.15 K, 101 kPa, x1 = 0.3	2.484 mPa·s and 2.5 mPa·s and 2.473 mPa·s
298.15 K, 101 kPa, x1 = 0.3001	2.526 mPa·s
298.15 K, 101 kPa, x1 = 0.3202	2.501 mPa·s
298.15 K, 101 kPa, x1 = 0.3499	2.442 mPa·s
298.15 K, 101 kPa, x1 = 0.35	2.405 mPa·s
298.15 K, 101 kPa, x1 = 0.4	2.239 mPa·s and 2.255 mPa·s
298.15 K, 101 kPa, x1 = 0.4003	2.288 mPa·s
298.15 K, 101 kPa, x1 = 0.4503	2.105 mPa·s
298.15 K, 101 kPa, x1 = 0.5	1.862 mPa·s and 1.916 mPa·s and 1.911 mPa·s
298.15 K, 101 kPa, x1 = 0.6	1.513 mPa·s
298.15 K, 101 kPa, x1 = 0.6002	1.563 mPa·s
298.15 K, 101 kPa, x1 = 0.7	1.287 mPa·s
298.15 K, 101 kPa, x1 = 0.8	1.084 mPa·s
298.15 K, 101 kPa, x1 = 0.8501	1.03 mPa·s
298.15 K, 101 kPa, x1 = 0.9	0.8984 mPa·s and 0.9619 mPa·s
298.15 K, 101.33 kPa, x1 = 0.042	1.253 mPa·s
298.15 K, 101.33 kPa, x1 = 0.076	1.547 mPa·s
298.15 K, 101.33 kPa, x2 = 0.1056	0.914 mPa·s
298.15 K, 101.33 kPa, x2 = 0.303	1.226 mPa·s
298.15 K, 101.33 kPa, x2 = 0.4062	1.497 mPa·s
298.15 K, 101.33 kPa, x2 = 0.5088	1.857 mPa·s
298.15 K, 101.33 kPa, x2 = 0.6057	2.211 mPa·s
298.15 K, 101.33 kPa, x2 = 0.7015	2.426 mPa·s
298.15 K, 101.33 kPa, x2 = 0.8044	2.295 mPa·s
298.15 K, 101.33 kPa, x2 = 0.9034	1.69 mPa·s
303.15 K, 100 kPa, x2 = 0.1	0.8364 mPa·s
303.15 K, 100 kPa, x2 = 0.2	0.9538 mPa·s
303.15 K, 100 kPa, x2 = 0.3	1.118 mPa·s
303.15 K, 100 kPa, x2 = 0.4	1.348 mPa·s
303.15 K, 100 kPa, x2 = 0.5	1.634 mPa·s
303.15 K, 100 kPa, x2 = 0.6	1.933 mPa·s
303.15 K, 100 kPa, x2 = 0.7	2.126 mPa·s
303.15 K, 100 kPa, x2 = 0.8	2.014 mPa·s
303.15 K, 100 kPa, x2 = 0.9	1.511 mPa·s
303.15 K, 100 kPa, x2 = 0.92	1.375 mPa·s
303.15 K, 100 kPa, x2 = 0.94	1.236 mPa·s
303.15 K, 100 kPa, x2 = 0.96	1.088 mPa·s
303.15 K, 100 kPa, x2 = 0.98	0.9425 mPa·s
303.15 K, 101 kPa, x1 = 0.0503	1.201 mPa·s
303.15 K, 101 kPa, x1 = 0.0699	1.349 mPa·s
303.15 K, 101 kPa, x1 = 0.1006	1.565 mPa·s
303.15 K, 101 kPa, x1 = 0.1202	1.689 mPa·s
303.15 K, 101 kPa, x1 = 0.1498	1.857 mPa·s
303.15 K, 101 kPa, x1 = 0.1698	1.954 mPa·s
303.15 K, 101 kPa, x1 = 0.2002	2.068 mPa·s
303.15 K, 101 kPa, x1 = 0.22	2.121 mPa·s
303.15 K, 101 kPa, x1 = 0.2504	2.174 mPa·s
303.15 K, 101 kPa, x1 = 0.2702	2.189 mPa·s
303.15 K, 101 kPa, x1 = 0.3202	2.165 mPa·s
303.15 K, 101 kPa, x1 = 0.3499	2.121 mPa·s
303.15 K, 101 kPa, x1 = 0.4003	2 mPa·s
303.15 K, 101 kPa, x1 = 0.4503	1.854 mPa·s
303.15 K, 101 kPa, x1 = 0.5	1.701 mPa·s
303.15 K, 101 kPa, x1 = 0.7	1.176 mPa·s
303.15 K, 101 kPa, x1 = 0.8	1.002 mPa·s
303.15 K, 101 kPa, x1 = 0.8501	0.9556 mPa·s
303.15 K, 101 kPa, x1 = 0.9	0.8958 mPa·s
303.15 K, 101.33 kPa, x1 = 0.099	1.521 mPa·s
303.15 K, 101.33 kPa, x1 = 0.2009	2.023 mPa·s
303.15 K, 101.33 kPa, x1 = 0.3008	2.13 mPa·s
303.15 K, 101.33 kPa, x1 = 0.3995	1.942 mPa·s
303.15 K, 101.33 kPa, x1 = 0.5005	1.629 mPa·s
303.15 K, 101.33 kPa, x1 = 0.5999	1.36 mPa·s
303.15 K, 101.33 kPa, x1 = 0.6997	1.127 mPa·s
303.15 K, 101.33 kPa, x1 = 0.7998	0.9634 mPa·s
303.15 K, 101.33 kPa, x1 = 0.9	0.845 mPa·s
308.15 K, 100 kPa, x2 = 0.1	0.7824 mPa·s
308.15 K, 100 kPa, x2 = 0.2	0.8866 mPa·s
308.15 K, 100 kPa, x2 = 0.3	1.03 mPa·s
308.15 K, 100 kPa, x2 = 0.4	1.22 mPa·s
308.15 K, 100 kPa, x2 = 0.5	1.463 mPa·s
308.15 K, 100 kPa, x2 = 0.6	1.697 mPa·s
308.15 K, 100 kPa, x2 = 0.7	1.85 mPa·s
308.15 K, 100 kPa, x2 = 0.8	1.752 mPa·s
308.15 K, 100 kPa, x2 = 0.9	1.331 mPa·s
308.15 K, 100 kPa, x2 = 0.92	1.217 mPa·s
308.15 K, 100 kPa, x2 = 0.94	1.097 mPa·s
308.15 K, 100 kPa, x2 = 0.96	0.9683 mPa·s
308.15 K, 100 kPa, x2 = 0.98	0.8451 mPa·s
308.15 K, 101 kPa, x1 = 0.02	0.869 mPa·s

Reference: the CheMixHub viscosity set
